Measured values reported in publication PMC4336329 (PLoS ONE, 2015).
The campaign covered roughly 310,000 compounds. About 14,000 (4.5%) showed an effect of 50% or more. The effect is printed as a negative number. This is one part of the list.

Biological target: human ether-à-go-go-related gene (hERG) potassium channel (human, UniProt Q12809)
Assay: primary screen, population patch clamp on CHO cells stably expressing hERG
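Note: peak tail current of the secondary pulse compared with the same well before compound.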

Chain of human ether-à-go-go-related gene (hERG) potassium channel (Q12809 whole entry, looked up): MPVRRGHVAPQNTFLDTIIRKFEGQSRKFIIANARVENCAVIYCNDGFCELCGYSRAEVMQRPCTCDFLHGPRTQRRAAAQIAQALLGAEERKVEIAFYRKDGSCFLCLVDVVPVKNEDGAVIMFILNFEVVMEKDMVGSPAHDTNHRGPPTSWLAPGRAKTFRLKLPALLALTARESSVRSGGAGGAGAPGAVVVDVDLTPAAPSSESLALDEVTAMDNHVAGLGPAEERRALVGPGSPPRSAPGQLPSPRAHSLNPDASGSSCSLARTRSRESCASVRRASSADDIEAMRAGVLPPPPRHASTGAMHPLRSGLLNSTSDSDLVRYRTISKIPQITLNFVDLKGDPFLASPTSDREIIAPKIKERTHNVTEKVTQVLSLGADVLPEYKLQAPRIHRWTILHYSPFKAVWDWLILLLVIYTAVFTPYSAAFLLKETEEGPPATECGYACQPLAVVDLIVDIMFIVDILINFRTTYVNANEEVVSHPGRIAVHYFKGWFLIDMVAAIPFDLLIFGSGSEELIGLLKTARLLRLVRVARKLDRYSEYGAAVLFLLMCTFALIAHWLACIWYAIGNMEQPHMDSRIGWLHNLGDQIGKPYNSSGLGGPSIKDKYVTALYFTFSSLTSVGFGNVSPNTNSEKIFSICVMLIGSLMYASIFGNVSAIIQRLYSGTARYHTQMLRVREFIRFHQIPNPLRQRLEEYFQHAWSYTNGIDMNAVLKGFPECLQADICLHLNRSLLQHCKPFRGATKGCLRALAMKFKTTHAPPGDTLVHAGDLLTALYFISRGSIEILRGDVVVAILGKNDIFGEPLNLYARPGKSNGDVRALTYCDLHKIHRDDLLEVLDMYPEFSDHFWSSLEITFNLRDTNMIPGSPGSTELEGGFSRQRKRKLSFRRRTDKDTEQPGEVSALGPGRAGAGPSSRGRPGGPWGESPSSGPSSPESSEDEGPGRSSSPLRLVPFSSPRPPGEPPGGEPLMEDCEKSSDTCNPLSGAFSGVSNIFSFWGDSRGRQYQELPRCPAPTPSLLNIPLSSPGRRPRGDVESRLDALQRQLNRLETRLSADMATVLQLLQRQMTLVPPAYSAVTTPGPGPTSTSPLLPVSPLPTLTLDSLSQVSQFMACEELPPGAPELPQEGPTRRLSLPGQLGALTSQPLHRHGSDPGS

SMILES	hERG current change (%, negative = inhibition) at 10uM
Cc1ccc(NC2=NCC(=O)N2Cc2ccccc2)c(C)c1	2.18%
Cc1cccc(NC(=S)N2CCN(C(=O)c3ccco3)CC2)c1C	14.9%
CCOC(=O)C(O)(c1ccc(N(CC)C(=O)COc2ccccc2)cc1)C(F)(F)F (stereo not drawn)	-13.8%
CS(=O)(=O)O/N=C1\CCCCC1c1ccc([N+](=O)[O-])cc1[N+](=O)[O-] (stereo not drawn)	-14%
CN(C)CCOC(=O)c1cccc(Br)c1.Cl	-12.8%
COC(=O)c1cc(S(=O)(=O)NCC2CCN(Cc3ccc(C)cc3)CC2)c[nH]1	-73.8%
O=c1cc(-c2ccc(F)cc2F)[nH]c2ccccc12	-0.184%
O=C(CCCn1c(=S)[nH]c2ccc(Br)cc2c1=O)NCc1ccccn1	12.9%
Cc1ccc(C(=O)c2ccc([N+](=O)[O-])cc2)cc1C	7.38%
C=CCOc1ccc(C2C(C#N)=C(N)N(Nc3ccccc3)C3=C2C(=O)CCC3)cc1OC (stereo not drawn)	-19.4%
CCC1Sc2ccc(S(=O)(=O)Nc3ccc(OC)cc3)cc2NC1=O (stereo not drawn)	10.3%
COc1ccccc1-c1noc(-c2cc(OC)c(OC)c(OC)c2)n1	5.28%
CCOc1ccc(NC(=O)C(=O)NCCN2CCN(S(=O)(=O)c3ccccc3)CC2)cc1	-8.75%
Cl.N=c1sccn1CC(=O)Nc1ccc(S(N)(=O)=O)cc1	18.2%
COc1ccccc1CCNC(=O)C(=O)NCC1OCCCN1S(=O)(=O)c1cc(C)ccc1C (stereo not drawn)	-9.51%
CCOc1ccccc1NC(=O)c1ccc(Cl)c(NC(=O)CC(c2ccccc2)c2ccccc2)c1	2.16%
COc1cccc(OCCNCc2ccccc2)c1.O=C(O)C(=O)O	2.51%
COc1ccccc1-c1cn[nH]c(=S)n1	20.1%
Cc1ccc(C(=O)N/C(=C/c2ccco2)C(=O)NC2CCS(=O)(=O)C2)cc1 (stereo not drawn)	16%
O=C(NNC(=O)c1cccc(Br)c1)Nc1ccc(Cl)cc1	18.9%
CCOC(=O)CN1C(=O)/C(=C/c2cccc(Br)c2)Oc2ccccc21	14.7%
Nc1ncnc2c1ncn2CCNCCc1ccccc1	-32.9%

SMILES	hERG current change (%, negative = inhibition) at 10uM
Cc1nn(-c2ccccc2)c(C)c1NC(=O)COC(=O)CCOc1ccccc1	-9.75%
Cc1ccc(C(=O)NC(C)C2CC3CCC2C3)cc1 (stereo not drawn)	19.1%
CCc1ccc(N2C(=O)NC(=O)/C(=C/c3cccn3CCOc3ccc(C(C)CC)cc3)C2=O)cc1 (stereo not drawn)	7.9%
O=C(CNS(=O)(=O)c1ccc(Br)s1)NCc1ccccc1	14.5%
Cc1c(Cl)c(C(=O)N2CCCCCC2)nn1C	14.1%
O=CNNC(=O)c1cccc([N+](=O)[O-])c1	19.7%
COc1cccc(Cl)c1NC(=O)N1CCN(c2cc(C)nc3ccccc23)CC1	-75.3%
CC(Oc1ccc2c(c1)oc(=O)c1ccccc12)C(=O)NC(Cc1c[nH]c2ccc(O)cc12)C(=O)O (stereo not drawn)	16.6%
O=C(CCSc1ccccc1)NCCSc1ccccn1	-0.175%
CCN(C(=O)COC(=O)c1[nH]c(=O)[nH]c(=O)c1N)c1ccccc1	36.4%
CN(C)c1ccc(-c2cccc(C3CC=CC4C3C(=O)N(Cc3ccccc3)C4c3ccc(C(F)(F)F)cc3)c2)cc1 (stereo not drawn)	20.1%
CCCC(=O)Nc1nc(C)c(-c2csc(Nc3ccccc3C)n2)s1	13%
CCCn1c(SCC(=O)c2ccc3c(c2)OCCO3)nnc1C(C)C	-14.4%
CN(Cc1ccccc1)S(=O)(=O)c1ccc(NC(=S)NC(=O)C2CCCC2)cc1	24.6%
COc1ccc(OCC(=O)Nc2ccccc2N2CCN(C)CC2)cc1	-38.6%
O=C(CSc1ncnc2nc[nH]c12)c1ccc(Cl)cc1	4.11%
CCCNC(=O)Cn1cnc2sc(C(=O)N3CCN(Cc4ccc5c(c4)OCO5)CC3)c(C)c2c1=O	-7.68%
COc1ccc(OCC(=O)NNC(=O)c2cccc(S(=O)(=O)N(C)C)c2)cc1	7.55%
Cc1ccc(C(=O)CSc2nc(N)cc(=O)[nH]2)cc1C	1.17%
COc1ccc(/C=N/Nc2nonc2N)cc1OC	-0.416%
S=c1nc(-c2ccccc2Cl)n(Cc2cccnc2)c2c1CCCC2	11.2%
COc1ccc(CCNC(=O)C2CCC(=O)N2Cc2ccccc2Cl)cc1OC (stereo not drawn)	12.6%

SMILES	hERG current change (%, negative = inhibition) at 10uM
Fc1ccc(N2CCN(c3cnc4ccccc4n3)CC2)cc1	6.24%
COc1ccc(C(C)=O)cc1COc1cccnc1[N+](=O)[O-]	3.06%
CC(=O)Nc1ccc(S(=O)(=O)N(CCc2ccccc2)CC(=O)N/N=C/c2ccc(C(=O)O)cc2)cc1	21.6%
NC(=O)c1cccc(-c2cc(Nc3ccc(OC(F)(F)F)cc3)ncn2)c1	-4.81%
CCC(CC)NC(=O)c1ccc2c(c1)OCCO2	7.58%
COc1ccc(C(C)C)cc1S(=O)(=O)NC1CCCC1	15.2%
Cc1cccc(N2CCN(C(=O)c3cccc(N4C(=O)C5CC=CC(C)C5C4=O)c3)CC2)c1C (stereo not drawn)	-12.5%
O=C(O)c1cnn2c(-c3ccc(F)cc3)ccnc12	21.7%
CCOc1cc(C=O)ccc1OCC(=O)NC(C)(C)C	13.8%
O=C(CCCN1C(=O)S/C(=C/c2ccccc2)C1=S)Nc1ccc(C(=O)O)cc1	4.33%
Cc1ccc(C)c(Nc2nc(-c3cccnc3)cs2)c1	3.66%
Cc1noc(C)c1S(=O)(=O)NCCN1CCN(c2ccccc2)CC1	-2.02%
C=CCNc1nnc(Cc2ccc(F)cc2)c(=O)[nH]1	20.9%
NCCCCCc1cn([C@@H](CO)C(=O)NCCCCCCCCCCC(=O)N2CCNCC2)nn1	-0.955%
CCN(CC)C(=O)c1[nH]cnc1C(=O)N[C@@H](C)C(=O)OCc1ccccc1	6.82%
CC(C(=O)NC1CCCc2ccccc21)N1C(=O)C2CCCCC2C1=O (stereo not drawn)	1.23%
O=C1NC(c2ccccc2)(C(F)(F)F)SC2=CCCCCN12 (stereo not drawn)	15.1%
CN(CC(=O)NCCc1ccc(S(N)(=O)=O)cc1)S(=O)(=O)c1ccc(Br)s1	-0.634%
O=C(c1cccc(S(=O)(=O)N2CCOCC2)c1)N1CCC(Cc2ccccc2)CC1	-30.4%
CCC(CC)C(=O)NCCc1cc2c(C)ccc(C)c2[nH]c1=O	2.39%
Cc1ccc(S(=O)(=O)N2CCCC2C(=O)Nc2nc3ccccc3s2)cc1 (stereo not drawn)	-14.8%
C=CCN1C(=O)[C@@H]2Cc3c([nH]c4ccccc34)C(c3cc(OC)c(OC)c(OC)c3)N2C1=S (stereo partly drawn)	18.1%

SMILES	hERG current change (%, negative = inhibition) at 10uM
O=C(N/N=C/c1ccc([N+](=O)[O-])o1)c1cn(-c2ccccc2)nc1-c1ccc(Cl)cc1	9.89%
COc1cccc(C(=O)CSc2nnnn2C2CCCCC2)c1	7.17%
CC(=O)N1N=C(c2ccc3ccccc3c2)OC1(C)C	-2.22%
Cl.O=C(OCCN1CCCCC1)c1ccccc1Br	-37.3%
O=C1NC(=O)C(CCc2ccncc2)(CCc2ccncc2)C(=O)N1C1CCCCC1	-75.3%
COc1cc(C)nc(N(C)S(=O)(=O)c2ccccc2Cl)n1	-3.1%
COCCn1c(C)nnc1SCC(=O)NNC(=O)c1ccc(Cl)cc1	16.4%
O=C(NC(=S)NNS(=O)(=O)c1ccccc1)c1ccc([N+](=O)[O-])cc1	8.74%
Cc1c2ccccc2cc[n+]1CCCS(=O)(=O)[O-]	28.4%
COc1cc(C(=O)Nc2ccc(OCC(=O)N3CCOCC3)cc2C)cc(OC)c1OC	14.8%
O=C(Cn1cnc2c(nnn2Cc2ccc(Cl)cc2)c1=O)NC1CCCC1	13.7%
COc1cc2nc(Nc3ccc(F)cc3)nc(N)c2cc1OC.Cl	-17.2%
Cc1ccc2oc(=O)c(/C=C(\O)c3ccco3)nc2c1	13.4%
CCOC(=O)NCC(C#CCN(CC)CC)N(CC)CC (stereo not drawn)	-1.15%
CC(=O)Nc1ccc(S(=O)(=O)N[C@@H](C)C(=O)OCc2cc([N+](=O)[O-])cc3c2OCOC3)cc1	-4.19%
C/C(=N\NC(=O)CNC(=O)c1ccccc1Br)c1ccco1	2.5%
COc1ccc(Nc2ccnc3ccccc23)cc1.Cl	-33.8%
Cc1ccc(OCC(=O)NN2C(=O)c3ccccc3C2=O)c(C)c1	6.34%
COc1cccc(C(=O)/C=C/c2ccc(N3CCCCC3)c([N+](=O)[O-])c2)c1	-3.01%
Cl.O=C(CCN1CCOCC1)Nc1ccc(Cl)cc1	6.33%
COc1ccc(OCC(=O)Nc2cc(NC(=O)COc3ccc(OC)cc3)cc(C(=O)O)c2)cc1	14.6%
